From PubChem BioAssay AID1745853 (National Center for Advancing Translational Sciences (NCATS), 2022)
“And” between values parts separate entries of the source, which are not always exact repeats. Equal entries are not always repeated. This is one part of the list. The main result of the screen is listed elsewhere. These columns were measured beside it and carry no call.

Key:
Test in all cases: Primary Screen for Target Class Profiling of Small Molecule Inhibitors of Methyltransferases
[1] = molecular target: Glycine N-methyltransferase (Homo sapiens) (UniProt Q14749); conditions: purified enzyme, MTase-Glo SAH luminescence; measured here: GNMT inhibition; at 40 µM; stronger effect = lower value
Procedure, shortened: (§1)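 Each enzyme was assayed with SAM and its substrate. SAH formation detected by MTase-Glo luminescence; single-point 40 uM screen[…].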

[2] = molecular target: Guanidinoacetate N-methyltransferase (Homo sapiens) (UniProt Q14353); conditions: purified enzyme, MTase-Glo SAH luminescence; measured here: GAMT inhibition; at 40 µM; stronger effect = lower value
Procedure, shortened: as §1

[3] = molecular target: Histamine N-methyltransferase (Homo sapiens) (UniProt P50135); conditions: purified enzyme, MTase-Glo SAH luminescence; measured here: HNMT inhibition; at 40 µM; stronger effect = lower value
Procedure, shortened: as §1

[4] = molecular target: Nicotinamide N-methyltransferase (Homo sapiens) (UniProt P40261); conditions: purified enzyme, MTase-Glo SAH luminescence; measured here: NNMT inhibition; at 40 µM; stronger effect = lower value
Procedure, shortened: as §1

[5] = molecular target: Phenylethanolamine N-methyltransferase (Homo sapiens) (UniProt P11086); conditions: purified enzyme, MTase-Glo SAH luminescence; measured here: PNMT inhibition; at 40 µM; stronger effect = lower value
Procedure, shortened: as §1
% is set by controls: 0 for no effect and ±100 for the full control effect.

Compound | activity change, negative = inhibition [1] [%] | activity change, negative = inhibition [2] | activity change, negative = inhibition [3] [%] | activity change, negative = inhibition [4] | activity change, negative = inhibition [5]
CCCN1C(=O)c2c(C(=O)NCc3ccc(CC)cc3)ncn2CC1(C)C(=O)NC1CCCC1 (stereo unspecified) | 4.78 | 0.799% | 7.59 | 6.74% | 11.9%
COc1cccc(CN2C(=O)c3nc4ccccc4n3CC2(C)C(=O)NC2CCC(C)CC2)c1 (stereo unspecified) | -2.72 | -2.51% | 7.76 | -31% | -5.71%
COc1cc(C(=O)NCC2(N(C)C)CCCC2)cc(OC)c1OCc1ccccc1 | -1.11 | 10.1% | -19.7 | -7.28% | 3.25%
COc1ccc(F)c(F)c1C(=O)c1cnc(NC2CCN(S(C)(=O)=O)CC2)nc1N | 3.39 | 1.16% | 8.54 | -22.2% | -1.99%
c1cc(-c2nc(C3CCOC3)nn2Cc2ccc3c(c2)OCO3)[nH]n1 (stereo unspecified) | -1.52 | 0.381% | 0.359 | -3.85% | 2.22%
CN1CCC(C(=O)N2Cc3ccccc3CC3(CCN(C)C3)C2)CC1 (stereo unspecified) | -1.32 | 2.43% | -7.76 | -0.815% | 7.71%
CC(C)NC(=O)CCn1ccc2cc(S(=O)(=O)N3CCCC3)ccc21 | -1.52 | 1.44% | 0.334 | 2.09% | -0.041%
COc1ccc(Cc2nnc3ccc(C(=O)N4CCN(Cc5ccccc5)CC4)cn23)cc1 | -6.59 | -7.46% | -8.23 | -10.3% | -7.56%
O=C(c1ccc(C(F)(F)F)cc1)N1CCC2(C1)C(=NC1CCCCC1)NC(=O)N2c1cccnc1 (stereo unspecified) | -6.13 | -10.8% | -3.62 | -6.7% | -6.47%
COc1ccc(Cn2c(=O)c3ccccc3n3c(-c4ccc(NC(C)=O)cc4)nnc23)cc1 | -5.85 | 0% | 7.21 | -2.9% | -0.038%
Cc1ccc(N2C(=O)N[C@@H]3CCN(C(=O)CC4(CC(=O)O)CCCC4)[C@@H]3C2=O)cc1 | -7.11 | -6.18% | -3.31 | -6.33% | -12.6%
CC(C)C1c2cccn2CCN1C(=O)Nc1ccc(F)cc1F (stereo unspecified) | 3.27 | 0.657% | -2.01 | -1.8% | 4.77%
O=C1NCCCCCN(S(=O)(=O)c2cccs2)[C@H]2CCCC[C@@H]12 | -2.43 | -4.13% | -1.66 | -7.83% | 8.18%
CCN(CC)CCCCCCNc1cc(OC)cc2c(C)ccnc12 | -5.12 | -46.3% | -45 | -28.7% | -74.1%
C=C(C)C(=O)OC1CC2(C)OC(=CC2=O)C(=C)CC2OC(=O)C(COC)C12 (stereo unspecified) | -0.694 | 2.22% | 8.91 | -9.71% | -3.23%
Cc1ccc(NC(=O)CSc2nnc3n(CCCOC(C)C)c(=O)c4ccccc4n23)cc1C | 3.33 | 0.302% | 7.36 | 0.358% | 1.79%
CC1(C(=O)O)CCCC2(C)C3CCC4CC3(CCC12)CC4(O)CO (stereo unspecified) | -5.25 | -6.29% | -0.38 | -15.9% | -14.3%
COc1ccc(Cl)cc1S(=O)(=O)Nc1ccc2[nH]c(=O)[nH]c2c1 | -7.04 | 3.78% | -2.16 | -1.28% | -17.9%
COc1cccc(CN2C[C@@H](CO)[C@H](NC(=O)C3CC3)C2)n1 | -2.16 | -1.47% | -0.563 | -3.69% | -0.06%
CC1CCCC(NC(=O)C2(C)Cn3c(nc4ccccc43)C(=O)N2CCc2ccc(Cl)cc2)C1C (stereo unspecified) | 3.77 | 0% | 3.42 | 6.69% | -3.6%

Compound | activity change, negative = inhibition [1] [%] | activity change, negative = inhibition [2] | activity change, negative = inhibition [3] [%] | activity change, negative = inhibition [4] | activity change, negative = inhibition [5]
CC1(C(=O)NC2CCCCCCC2)Cn2c(cc3sccc32)C(=O)N1Cc1ccc(F)cc1 (stereo unspecified) | -10.6 | 4.28% | -1.97 | -11.6% | -4.88%
CS(=O)(=O)N1CCC(OC2CCN(C(=O)Nc3ccccc3C(F)(F)F)CC2)CC1 | -0.178 | -6.7% | 2.05 | -2.06% | 1.72%
COc1ccc(CNC(=O)Cn2nc3n(Cc4ccc(F)cc4)c(=O)c4ccccc4n3c2=O)cc1 | -0.745 | 4.88% | 3.09 | -3.69% | -1.18%
COc1ccc2cc1Nc1ccc(cc1)C[C@H](NCc1ccc3c(c1)CCO3)C(=O)N(C)[C@H](C(=O)NCCC(C)C)C2 | -3.32 | 0.558% | 0.986 | -7.24% | -2.12%
O=C(CCn1ccc2cc(S(=O)(=O)N3CCCCC3)ccc21)NCC1CCCO1 (stereo unspecified) | 6.54 | 0.785% | 4.92 | 8.46% | 4.27%
NC(=O)c1c(OCc2c(F)cc(Br)cc2F)nsc1NC(=O)NCCCCN1CCCC1 | -7.34 | 9.54% | -22.8 | -18.5% | -0.75%
C=C1C(=O)O[C@@H]2CC(C)=C([C@@H](C)CCCOC(C)=O)[C@@H](O)[C@H]12 | 2.22 | -0.412% | 6.38 | -8.28% | 4.03%
CCCn1c(=O)c2ccc(C(=O)NC(C)CC)cc2n2c(SCC(=O)c3ccc(F)cc3)nnc12 (stereo unspecified) | 6.42 | 0% | 12.6 | 5% | 7.54%
COc1ccc(-c2cc3ncc(C)n3c(Nc3ncccc3C(N)=O)n2)cc1OC | -8.11 | 8.4% | 1.73 | -3.16% | 8.3%
COc1ccc2c(c1)C(CN1CCN(c3ccc4oc(C(=O)O)cc4c3Cl)CC1)=CC(C)(C)CO2 | -67.2 | -6.35% | -12.9 | -28.1% | -0.833%
CCOC(=O)[C@H](CCc1ccccc1)N[C@H]1CS[C@H](c2cccs2)CN(CC(=O)O)C1=O | – | -2.28% | – | -18.3% | -4.3%
O=C1NC(=O)/C(=C/c2ccc3nccnc3c2)S1 | -7.94 | 4.14% | -1.9 | -6.17% | 5.69%
CCCn1c(=O)c2ccc(C(=O)NCC(C)C)cc2n2c(=O)n(CC(=O)c3ccc(C)cc3C)nc12 | 1.26 | 3.23% | 4.86 | -1.17% | -0.773%
O=C(O)Cc1c(-c2ccccc2)c2cc(Cl)ccc2[nH]c1=O | -9.16 | 0% | 10.6 | 6.84% | 1.87%
Cc1cccc(NC(=O)N2Cc3c(sc4c3CCCC4)-n3cccc3C2c2cc(F)cc(F)c2)c1 (stereo unspecified) | -2.71 | 0% | 7.77 | 6.55% | 6.51%
CC(=O)Oc1ccc(C2Nc3ccc(C)cc3C3C=CCC32)c(OC(C)=O)c1 (stereo unspecified) | -8.36 | 1.57% | -0.1 | -0.874% | -11.2%
CCn1cc(CN2CCC(N3C(=O)C4(CCCCC4)C3c3ccncc3)CC2)cn1 (stereo unspecified) | 0.864 | -2.25% | -8.18 | -3.36% | -4.09%
COc1ccccc1CNC(=O)C1(C)Cn2nc(-c3ccccc3)cc2C(=O)N1c1ccc(C(C)C)cc1 (stereo unspecified) | 8.01 | 0.498% | 11.2 | 14.6% | 2.9%
COc1cc(C)c(-c2nc(Cn3cccn3)c(C)o2)cc1C | -2.62 | 0.427% | -0.065 | -5.23% | -2.94%
CCNC(=O)N1CCC(N2C(=O)C3(CCCC3)C2c2ccccc2)CC1 (stereo unspecified) | -0.817 | 3.69% | 3.93 | -5% | 10.9%

Compound | activity change, negative = inhibition [1] [%] | activity change, negative = inhibition [2] | activity change, negative = inhibition [3] [%] | activity change, negative = inhibition [4] | activity change, negative = inhibition [5]
OC[C@H]1O[C@@H](Oc2cc(O)cc(/C=C/c3ccc(O)cc3)c2)[C@H](O)[C@@H](O)[C@@H]1O | -3.32 | 1.88% and -5.12% | 8.16 | -13.2% and -17.8% | 3.06% and -9.16%
O=C(Cn1c(=O)oc2cc(S(=O)(=O)NCc3ccccc3)ccc21)NC1CCCC1 | -3.53 | 2.77% | 2.9 | 2.67% | -6.92%
CCCn1c(=O)c2ccc(Cl)cc2n2c(SCC(=O)Nc3ccccc3OC)nnc12 | -1.47 | 2.36% | -0.141 | -2.96% | -1.35%
Cc1ccc(CCNC(=O)CCn2ccc3cc(S(=O)(=O)N4CCCCC4)ccc32)cc1 | 2.9 | 0% | 4.64 | 4.65% | 1.65%
Cc1nn(-c2ccccc2)c2c1C(C(C)C)N(C1CN([S+](=O)([O-])c3cccc(C(F)(F)F)c3)C1)C2=O (stereo unspecified) | -4.27 | -3.3% | -3.77 | -8.79% | -29.5%
COc1ccc(-c2cc3nc4c(c(=O)n3[nH]2)CN(C(=O)c2ccc(C)nc2)CC4)cc1 | -6.85 | -3.3% | -3.67 | -2.95% | -1.26%
CC1(C)CC[C@]2(C(=O)O[C@@H]3O[C@H](CO)[C@@H](O)[C@H](O)[C@H]3O)CC[C@]3(C)C(=CCC4[C@@]5(C)C[C@@H](O)[C@H](O)[C@@](C)(CO)C5[C@H](O)C[C@]43C)C2[C@@H]1O (stereo partly specified) | 0 | 1.99% | 4.67 | -10.6% | 4.13%
O=C(NCc1ccccc1)c1cnc2n1CCN(Cc1ccccc1)CC2 | -1.67 | -2.7% | -2.14 | -3.75% | -0.872%
Cc1ccc(NC(=O)CSc2nnc3n(Cc4ccc(F)cc4)c(=O)c4ccccc4n23)cc1C | 8.63 | 2.56% | 14.7 | -3.25% | 8.65%
COc1ccc(CC(=O)N2CCCC3(Cc4ccccc4CN3C(=O)C3CCCC3)C2)cc1 (stereo unspecified) | -8.09 | -4.18% | -6.07 | -15.4% | -10.7%
Cc1cc(C)n(Cc2ccc(C(=O)N3CC4CC(C3)[C@H]3CCCC(=O)N3C4)o2)n1 (stereo partly specified) | -3.03 | -3.53% | -0.873 | -4.46% | -4.6%
CN(C)C[C@@H]1CN(C2CCOCC2)C[C@H]1NC(=O)c1nccc2ccccc12 | -4.51 | -4.52% | -0.586 | -7.38% | -2.82%
COc1ccc(C2CNC(=O)C2)cc1OC1CCCC1 (stereo unspecified) | 3.58 | 11.1% | 3.69 | -7.5% | 1.22%
O=Nc1c(-c2c(O)[nH]c3ccc(F)cc23)[nH]c2ccccc12 | – | -28.9% | – | -47% | -26.8%
CCN(CC)c1ncnc2c1ncn2[C@@H]1O[C@H](COP(=O)(O)OP(=O)(O)C(Br)(Br)P(=O)(O)O)[C@@H](O)[C@H]1O | -3.71 | 4.04% | -1.45 | -4.47% | 5.53%
CC(/C=C/c1cccc(Oc2ccc(F)cc2)c1)N(O)C(N)=O (stereo unspecified) | -4.39 | 6.38% | -1.86 | -11.4% | 0.76%
COc1cccc(CNC(=O)c2ncn3c2C(=O)N(C2CC2)C(C)(C(=O)NCc2ccc(F)cc2)C3)c1 (stereo unspecified) | 1.05 | 2.41% | 10.2 | 6.67% | 9.99%
COCCCN1CCC(CNc2nccc(-c3cnn(C)c3)n2)C1 (stereo unspecified) | -5.11 | -5.34% | -6.91 | -5.74% | 0.654%
CC1(C(=O)NC2CCCCC2)Cn2c(cc3occc32)C(=O)N1Cc1ccccc1Br (stereo unspecified) | -6.53 | 3.33% | -7.42 | -2.83% | -4.92%
